# Results from the supplement of paper PMC3334620.
# Over roughly 33,000 sequences, “E-score (-0.5 to 0.5)” has its median near -0.012; the highest 2% begin near 0.27. The list shows a part of the results.
# Target: T1, Vhr1 (UniProt P40522)
# T1 sequence: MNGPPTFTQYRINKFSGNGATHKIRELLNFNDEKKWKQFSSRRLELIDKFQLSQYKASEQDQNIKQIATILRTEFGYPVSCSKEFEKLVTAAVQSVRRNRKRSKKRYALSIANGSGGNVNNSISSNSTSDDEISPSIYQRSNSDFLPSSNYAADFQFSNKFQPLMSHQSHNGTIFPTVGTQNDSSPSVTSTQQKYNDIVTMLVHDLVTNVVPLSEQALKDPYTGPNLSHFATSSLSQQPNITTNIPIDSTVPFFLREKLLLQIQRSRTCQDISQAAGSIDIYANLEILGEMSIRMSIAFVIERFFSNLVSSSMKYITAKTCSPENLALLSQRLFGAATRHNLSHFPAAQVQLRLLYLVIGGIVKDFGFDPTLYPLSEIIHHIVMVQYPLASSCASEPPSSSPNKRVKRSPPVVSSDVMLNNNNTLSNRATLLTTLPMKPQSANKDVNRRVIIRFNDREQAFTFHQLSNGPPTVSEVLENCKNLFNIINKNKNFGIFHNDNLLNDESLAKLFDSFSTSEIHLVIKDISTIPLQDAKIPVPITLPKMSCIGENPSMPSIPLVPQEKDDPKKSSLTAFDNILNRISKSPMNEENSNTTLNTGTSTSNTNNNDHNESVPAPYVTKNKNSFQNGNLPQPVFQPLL
# Experiment: PBM E-score (8-mer binding enrichment) (E-score (-0.5 to 0.5)); higher = stronger / more preferred TF binding; most listed sequences are background and not binding sites
# Settings: protein concentration: 200 nM; construct: GST-full length
# Method in brief: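 Full-length yeast transcription factors or their DNA-binding domains, GST-tagged and expressed with PURExpress, were applied at about 100-200 nM to universal all-10-mer Agilent arrays. These arrays had been made double-stranded by primer extension on fresh or once-stripped slides. Detection used fluorescent anti-GST, normalisation used masliner, and E-scores for ungapped eight-base words pooled with reverse complements came from the Universal PBM Analysis Suite.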
row,Sequence,PBM E-score
1,ATCTGGCA,-0.22
2,CCAGACGA,0.0274
3,ACGGCAAG,-0.032
4,AATGCCAC,-0.0244
5,GTCGTATA,0.0758
6,AAGGAGCT,-0.303
7,CTACATGC,-0.114
8,ACATCGGC,-0.056
9,GCATTCAC,-0.0931
10,ACAATAGT,0.14
11,AAGAATAA,-0.182
12,AACAGACG,-0.0627
13,AAACTTCG,-0.32
14,GCAAAGAC,-0.0646
15,AGGGCTCC,-0.358
16,GGGACATA,-0.0325
17,CCTTGTCG,-0.233
18,ATCTCATG,0.189
19,AATGGAAC,-0.0778
20,AAGAATAG,-0.0631
21,ACCAGAGC,0.0446
22,AACTCAAG,0.0211
23,AGTTGGTA,0.162
24,ACTTGGCG,0.0405
25,GCGACCCC,0.0605

row,Sequence,PBM E-score
1,CGAAAGCG,-0.0395
2,AAAATTGA,-0.239
3,AGTTTGCC,0.0585
4,CCCTACCA,0.0219
5,TGGTCTAA,-0.0689
6,CTACTGTA,0.197
7,GACAGGCC,0.0361
8,GCGGCAGA,-0.152
9,CGAAAGGC,-0.0848
10,GATTGTGA,0.144
11,GACAGCTC,-0.0639
12,GTTGAGCA,-0.112
13,GAAAGGAC,-0.0738
14,CGAAGCGC,-0.142
15,TACTCTCA,-0.0517
16,CCGAGCCC,-0.0889
17,CGCCGGTC,-0.0526
18,ATAGTTAA,-0.0692
19,CCTGAGAG,-0.105
20,AAGCCACC,-0.106
21,ACCCGTTC,0.0111
22,AATTGGCT,-0.0912
23,CGTTTAAC,-0.12
24,ACTAAACT,-0.0854
25,CGAGCTAG,-0.0521

row,Sequence,PBM E-score
1,ATGACAAA,0.00026
2,ATCTAACC,-0.175
3,AGAGGACA,-0.188
4,CGAAGGCG,0.0904
5,GTGTCATA,0.127
6,ATCGCGAC,0.241
7,AGTTCGCA,-0.182
8,AACCGCAT,0.0684
9,CCCAACGG,0.134
10,CAGTTTGA,0.00908
11,GCCGCTCC,-0.145
12,ACACCTGT,0.131
13,CGCTGCAA,-0.0576
14,AAGGCGCT,-0.0758
15,GTCACAAA,-0.0213
16,AATTCTCT,-0.285
17,CCCCGGAG,0.146
18,GTCTGCCA,-0.00754
19,ACGAAACA,0.0611
20,ACTGGCCA,0.14
21,GTCTCCGA,0.106
22,AAATTAAA,-0.206
23,AATCTGCC,-0.00178
24,GCATCAGA,0.141
25,GTACCCTA,0.0707

row,Sequence,PBM E-score
1,AACGTCTT,-0.249
2,CGCTGACG,-0.182
3,TATGTGCA,-0.0485
4,TATAAACA,0.0487
5,AGCTACCG,-0.0562
6,AGTGTACG,0.163
7,ATCCAATA,0.135
8,TAAGCGGA,-0.18
9,CGTTAGCC,-0.08
10,CAGAACTA,-0.026
11,CCCAACCC,0.118
12,ACGCCACT,0.0441
13,GATAATTA,-0.00953
14,CACTGACG,-0.0183
15,CGCTCAAA,-0.099
16,CCGTTCTC,-0.181
17,AAATAGGA,-0.048
18,AGAGGGTA,-0.0289
19,AACTGCTG,-0.0272
20,CGCAGCCG,0.0461
21,TAACGGCA,0.0468
22,AACCTGCG,0.0224
23,ACTCTTAA,-0.233
24,ACTCATGC,0.322
25,ACACTCAC,0.281

row,Sequence,PBM E-score
1,CCGAGTCG,0.336
2,AAGTGGTG,0.0502
3,CGCTTTCC,-0.0564
4,CAGCCAAA,0.0934
5,AGACGCAC,-0.0191
6,CCTCGCCA,-0.0907
7,GGCGGCTA,0.0425
8,AGATCCTA,-0.074
9,ACCCACGC,0.235
10,CACCTTGA,-0.0769
11,TTCGAGAA,-0.0407
12,CCACGTGG,-0.129
13,AACACGGG,0.216
14,GGGTCATA,0.186
15,ACAAATCC,0.128
16,CCGTAAGC,-0.149
17,GTGGTCGA,-0.168
18,ATAGACTA,0.187
19,CCCACTAC,0.171
20,CATCTACA,0.173
21,AAGCAAGT,-0.0526
22,ATCCAAGC,0.0358
23,GACTGGCC,0.0317
24,CCACGTGC,0.0534
25,GCATCAAA,0.0425

row,Sequence,PBM E-score
1,AAGACTAC,0.122
2,CTTTAGTC,-0.049
3,ATGCCGCG,0.0183
4,GAGGTAGA,-0.00762
5,CGAATGCC,-0.0201
6,CCTCATCG,0.0284
7,ATCGAGGG,-0.0103
8,ACTACTGG,0.0711
9,CTGTCAGC,-0.0512
10,CGCAACCC,0.0271
11,CTAGACTA,-0.0704
12,CTTAAACA,0.077
13,CTAGGGGC,-0.146
14,GCCAGTAC,0.082
15,GACTGGAC,-0.016
16,CGTTTAGC,-0.145
17,AAATTGAG,-0.109
18,ATTAGCGG,-0.292
19,CATAAACA,-0.0683
20,ACAGGTCT,-0.158
21,GTGGAAAC,-0.105
22,GAGTACAC,0.185
23,CTAGGTTA,0.0188
24,AATGCACA,0.0865
25,AGCTAATA,0.0454

row,Sequence,PBM E-score
1,CATCGGAA,0.104
2,AACCCTTG,-0.102
3,ATCAGGCG,0.127
4,ATAACCGC,0.139
5,GCGGCTCC,-0.197
6,AGCACCCG,0.00487
7,CCGTGGCA,-0.102
8,CGCTTAGC,-0.122
9,ACGAATAT,0.0505
10,GACAGCGA,-0.0983
11,GGATCACC,-0.0237
12,CTTAATTC,-0.255
13,GGTTATTA,0.00306
14,ATCACCCA,0.223
15,GTACGACA,0.0506
16,GGAATCCC,0.034
17,ACCTATTG,-0.187
18,CAACGTGC,0.0282
19,ATATAGCG,-0.0993
20,CTCCGTCC,-0.258
21,AGCACCAT,-0.106
22,AGCTCTAT,-0.212
